Laboratory results reported in the supplement of paper PMC11417369.
± gives the standard deviation of the averaged measurements. Some of the results follow.

tested on: PfAP2-G AP2 domain (GST-tagged); test: gcPBM binding intensity (ln(normalized median fluorescence intensity)); higher = stronger DNA binding
Procedure, shortened: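 GST-tagged P. falciparum DNA-binding domains produced in E. coli were incubated for 1 h on an Agilent 4 × 180k array of primer-extended double-stranded 36-bp intergenic genomic probes with negative controls. Binding intensity is the highest Masliner-normalised natural-log median intensity across replicate spots of either probe orientation, with bound protein detected by Alexa488 anti-GST antibody at 488 nm.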

Sequence | gcPBM binding intensity (ln)
CACACGCACAGACACACACACACATATAAATATGTA [CACACA_site6300] | 10.5 ± 0.43
ATATGATTTCACAAGACACACACATACAAATTTATA [CACACA_site9296] | 10.2 ± 0.2
TTATGTATTCATAACACATGCAAATAGGATCATATA [TGCATGCA_site731] | 10.04 ± 0.049
CGTTAGAGGGCTTTATCACACATGAAAAAAAAAAAA [CACACA_site5155] | 10.1 ± 0.49
TATATTTATTTTAACACACACATATATATATTATAT [CACACA_site4729] | 10.1 ± 0.15
TCCCAAGGAGTAGGCACACATAAAATATTATACATA [CACACA_site717] | 10.1 ± 0.13
TATATATATAACAACACACACAGATCATAAAACTGC [CACACA_site2161] | 10.08 ± 0.071
AAAAAAAAAAAAAACACACACAAATTTAATATATAT [CACACA_site1695] | 9.89 ± 0.14
AAAATTAAAGTAAGGACACACATATATAATACATAT [CACACA_site823] | 11.1 ± 0.7
TACACCAAAAAAAAACGTACAAAATCCCACCCAGAC [XGTACX_site4622] | 11.4 ± 0.54
AAAAAAAAAAAAAAAACACACACAAATTTAATATAT [CACACA_site8492] | 10.22 ± 0.092
TACCTAATATGTTATACACACATTAGAAGTACATAT [CACACA_site5375] | 11.6 ± 1.1
TGTAATAACGTTATAAAAAGTATAAAAAAAAAAAAA [CACACA_negctrl_site943] | 9.8 ± 0.45
TTATTTTTATTATTTTGTATATATATTTATAGAAAA [XGTACX_negctrl_site465] | 9.79 ± 0.16
TATATACTTTTTAATCACACTTCTTTAAAAAAAGTA [CACACA_negctrl_site1380] | 10.2 ± 0.38
TTTTAGGTCTGAATGTGTACTAAATAATATAAGTAT [XGTACX_site6554] | 11.3 ± 0.88
ATAAAAAAAAAAAAAAAATATATATATATATATATA [XGTACX_negctrl_site424] | 9.84 ± 0.6
AATAAATAAATAAATTAATAAATTAATAAATTAATA [GTGCAC_negctrl_site37] | 9.21 ± 0.2
CACACAAAGGAATATACACACATATTTATATTTATA [CACACA_site7841] | 9.905 ± 0.035
GTATATAATTTTTTATGTACTAAATTATATGTTTTT [XGTACX_site4907] | 10.9 ± 0.61
ATCTATTTGTAAAGGGTGCGCATATCAATAAAAAAT [GTGCAC_site9503] | 10.5 ± 0.43
CAAAATTTTTATAAGTCACACATTATCTAAGCTTAT [CACACA_site5747] | 10.14 ± 0.085

Sequence | gcPBM binding intensity (ln)
CTTATTTTGTTATAAGTGCATTTTTTAAAATTTCTT | 10.16 ± 0.057
GGAAGAAAACTTAGGTGTACATATAAAACGATATAA [XGTACX_site3118] | 11.5 ± 0.93
TATGAACACAGACACACACACAAAAAAAAAAAAAAA [CACACA_site7037] | 10.1 ± 0.59
ATAGTATACAGACACACACACACACCGATATATATA [CACACA_site8511] | 10.1 ± 0.13
TACTAACATAAAGACACACACCACATAAAATAAATA [CACACA_site7663] | 10.1 ± 0.14
TATTTTTAATATTTTGCATGCAGTATTTTATAAAAT [TGCATGCA_site250] | 10.1 ± 0.16
ACAATTCCCGTATGATGTACTTTTTTCCACTTTTTC [XGTACX_site1811] | 11.5 ± 0.91
TATACCTTTGCGTGTGCATGCGCTTATATATATTTT [TGCATGCA_site152] | 9.97 ± 0.057
TTTATGTGTATGTTTACACACATAAAAAAATATATG [CACACA_site3039] | 10.2 ± 0.27
TATGTTATTATTTGTACACACACATATATATCCTTG [CACACA_site5910] | 11.2 ± 0.61
AACAAATATCCCAAAAGTACACATATAAAAAAAAAA [XGTACX_site4126] | 11.3 ± 0.92
TTTTTGTTATTATGTGTGCACATATATATATATATA | 10.6 ± 0.54
CATACACCCAGACACACACACATATATATATATATA [CACACA_site634] | 10.3 ± 0.39
ATTATCTTATGTTATTTATTTGTCCCACATTTGTTA [TGCATGCA_negctrl_site402] | 10.8 ± 0.68
TTTTTTTTTTTTGGTAGTACATAATATTAATATAAT [XGTACX_site4422] | 11.6 ± 1
TATATTTTCCTGCAAACACACATATAAATGGGTAGA [CACACA_site4451] | 9.98 ± 0.014
GATATTTGTTCATATACACACTTTTGATAAAATATG [CACACA_site4807] | 10.33 ± 0.085
ATATATATATATATGGTGCATGAAAATTTACTTTGA | 10.1 ± 0.31
ATATACTCATTTAATACACACAAAGAGAAAATTAAT [CACACA_site1923] | 10.3 ± 0.34
ATAGTACAACAGGTTCTTGACAAACAATATGAATGT [GTGCAC_negctrl_site442] | 11 ± 0.83
TTTATATAATTTTTTTGTACATATATATGAATACAT [XGTACX_site2316] | 11 ± 0.64
TAATTTTTTTTTTTTTTTCATTCTTTTCCTTTGATT [CACACA_negctrl_site1365] | 9.54 ± 0.11

Sequence | gcPBM binding intensity (ln)
TTTTTTTTTTTTTGGTGTACATTTATAAAAAAAAAA [XGTACX_site8368] | 11.4 ± 0.88
ACACAAAAAAAAAAAAAAAAAAAAAAAAAAAAGGAA [CACACA_negctrl_site1162] | 10.1 ± 0.59
AATATGTACAGACATACACACATATATATATATATA [CACACA_site1222] | 11.2 ± 0.96
CATATCTCAATTTATGCATGCAGGATTTTTCTAATA [TGCATGCA_site516] | 9.95 ± 0.11
TTTTTAATAACACTTTTGAAAAATAAAATAAAATAA [CACACA_negctrl_site821] | 9.91 ± 0.36
TTTTATGTTCTTAATGCACACTTATAAGTATCTTAT [CACACA_site4895] | 10.4 ± 0.34
TTTTTTTATTATTCTTATATAAAAATTTTTTTTAAT [CACACA_negctrl_site159] | 9.54 ± 0.26
ACATATAAGATTATGTGTCCACAAAAAAATAAAACA [XGTACX_site2867] | 11.3 ± 0.67
AATAACAAAATAGGCACACGCACATATATATATATA [CACACA_site1497] | 10.2 ± 0.23
TACATATTTATATACACACACACACGGATATTTATA [CACACA_site7239] | 10.2 ± 0.13
ATTCAAAAGATGTATACACACATGTGGATAATATAA [CACACA_site2443] | 10.2 ± 0.11
GCACCCTGTATGAATGCACACATTCATAGAATTGCT [CACACA_site5475] | 9.95 ± 0.071
ATATATATAAAAGAAACAACATTTATTCAAAAGGTA [CACACA_negctrl_site749] | 9.76 ± 0.028
TTATTCTTTTAATATACACACTTTGTCTTTTCGCGC [CACACA_site5525] | 9.83 ± 0.099
TACTTTTATAAAAATTTTATCAAATTCTATATATGT [TGCATGCA_negctrl_site308] | 9.97 ± 0.16
TTTTAAATTTAGTGTAGTACACTTTTTTCAAATATA [XGTACX_site4659] | 11.7 ± 1.2
ATATTATCATTTTTTTTAATGGAAAAAAAAAAAAAA [CACACA_negctrl_site1298] | 9.88 ± 0.35
ATATAATTCAAATACAGTACATATACAATATATACA [XGTACX_site1191] | 10.9 ± 0.77
TAATTTTTTAAACACACACACATATATATATATATA [CACACA_site4230] | 10.3 ± 0.64
GAATTCCTTTGTGTATGTACATAATGATATTATTTT [XGTACX_site7369] | 10.9 ± 0.48
TGATCAAATAAGTTTGCATGTCAACAATGCATATAT [TGCATGCA_site1025] | 9.93 ± 0.099
CCCCTTGTGGATTCTACACACAAAAAGTCGTCAAAA [CACACA_site821] | 10.8 ± 0.48

Sequence | gcPBM binding intensity (ln)
ATATACATATCATGTAGTACAATTTTTTTACTTTTT [XGTACX_site7988] | 11.3 ± 0.88
TAAAAAAATAAAATTACACACATATATAGATATATA [CACACA_site7273] | 9.47 ± 0.12
CACTTTTTTTAAATGTGTACGTATATGAAAATATCA [XGTACX_site4854] | 11.7 ± 1
TAAACAAAAAGGAAGAGTACTTGTAAAATTTGTAAA [XGTACX_site3003] | 11.2 ± 0.75
TATTTATTTGTACATATACACACTTAAATATGTTTA [CACACA_site3902] | 11.1 ± 0.71
ACAAAAAAAAATATGTTAACTATATATATATATATA [CACACA_negctrl_site346] | 9.96 ± 0.45
AATTGGGAACTGTAATGTACATATATTGAAAGTATA [XGTACX_site7081] | 11.1 ± 0.6
ATATATTTATATATTACACACAATATTGGAGACATA [CACACA_site931] | 10.2 ± 0.12
AGAAAACTCGCTTTTCTAAATCTCAAAAAAAAAAAA [XGTACX_negctrl_site94] | 9.49 ± 0.13
ATACATATATTAGGATGTACGTTTATTTTAGTTATT [XGTACX_site7169] | 11.3 ± 0.74
TTATATTTCTTGAAGGGTACATACCATTATTTTTAA [XGTACX_site1159] | 11.1 ± 0.59
GTTTCTATTCACATTTTACACACGTCCATCGCATTT [CACACA_site9142] | 10.7 ± 0.45
TTTTGTTGTATGATAATTCTTTTATCAATATGTCTT [TGCATGCA_negctrl_site567] | 9.73 ± 0.16
ACCAAATTATCAAATGGTACACATAAAATAATAAAA [XGTACX_site865] | 11.3 ± 0.74
TAATTAACCTATGCATTCATATAGATACATAAATAT [CACACA_negctrl_site885] | 9.86 ± 0.014
TATAATATTATTTGAAGTACAAACATAAAAGAATTA [XGTACX_site3161] | 11.2 ± 0.79
AGATCATAATATTATACACACATTATGTATATGTAA [CACACA_site1490] | 9.82 ± 0.12
TGAATACATAAATATAGTACATATATATATATATTA [XGTACX_site8756] | 10.9 ± 0.74
GAACCATTTTTTGGTATACACACGTAATTATAGAAT [CACACA_site1851] | 10.2 ± 0.14
TACAAAAAATTATGGAGTACATATATAATATACAAT [XGTACX_site1004] | 11.5 ± 0.88
AGTTATTTTTATATTTCACACACATATACTTTTACA [CACACA_site9357] | 10.2 ± 0.14
AATAATTCTTAAAGGTGTACAATATGTATATAAGAA [XGTACX_site595] | 11.7 ± 0.6
